# In paper PMC4336329 (PLoS ONE, 2015):
# Hit rate of the full screen: of about 310,000 compounds, about 14,000 (4.5%) showed an effect of 50% or more. The effect is printed as a negative number. The list shows a part of the results.
# Target: human ether-à-go-go-related gene (hERG) potassium channel (human, UniProt Q12809)
# Assay: primary screen, population patch clamp on CHO cells stably expressing hERG
# 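Also: peak tail current of the secondary pulse compared with the same well before compound.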
# human ether-à-go-go-related gene (hERG) potassium channel, sequence (Q12809 whole entry, looked up): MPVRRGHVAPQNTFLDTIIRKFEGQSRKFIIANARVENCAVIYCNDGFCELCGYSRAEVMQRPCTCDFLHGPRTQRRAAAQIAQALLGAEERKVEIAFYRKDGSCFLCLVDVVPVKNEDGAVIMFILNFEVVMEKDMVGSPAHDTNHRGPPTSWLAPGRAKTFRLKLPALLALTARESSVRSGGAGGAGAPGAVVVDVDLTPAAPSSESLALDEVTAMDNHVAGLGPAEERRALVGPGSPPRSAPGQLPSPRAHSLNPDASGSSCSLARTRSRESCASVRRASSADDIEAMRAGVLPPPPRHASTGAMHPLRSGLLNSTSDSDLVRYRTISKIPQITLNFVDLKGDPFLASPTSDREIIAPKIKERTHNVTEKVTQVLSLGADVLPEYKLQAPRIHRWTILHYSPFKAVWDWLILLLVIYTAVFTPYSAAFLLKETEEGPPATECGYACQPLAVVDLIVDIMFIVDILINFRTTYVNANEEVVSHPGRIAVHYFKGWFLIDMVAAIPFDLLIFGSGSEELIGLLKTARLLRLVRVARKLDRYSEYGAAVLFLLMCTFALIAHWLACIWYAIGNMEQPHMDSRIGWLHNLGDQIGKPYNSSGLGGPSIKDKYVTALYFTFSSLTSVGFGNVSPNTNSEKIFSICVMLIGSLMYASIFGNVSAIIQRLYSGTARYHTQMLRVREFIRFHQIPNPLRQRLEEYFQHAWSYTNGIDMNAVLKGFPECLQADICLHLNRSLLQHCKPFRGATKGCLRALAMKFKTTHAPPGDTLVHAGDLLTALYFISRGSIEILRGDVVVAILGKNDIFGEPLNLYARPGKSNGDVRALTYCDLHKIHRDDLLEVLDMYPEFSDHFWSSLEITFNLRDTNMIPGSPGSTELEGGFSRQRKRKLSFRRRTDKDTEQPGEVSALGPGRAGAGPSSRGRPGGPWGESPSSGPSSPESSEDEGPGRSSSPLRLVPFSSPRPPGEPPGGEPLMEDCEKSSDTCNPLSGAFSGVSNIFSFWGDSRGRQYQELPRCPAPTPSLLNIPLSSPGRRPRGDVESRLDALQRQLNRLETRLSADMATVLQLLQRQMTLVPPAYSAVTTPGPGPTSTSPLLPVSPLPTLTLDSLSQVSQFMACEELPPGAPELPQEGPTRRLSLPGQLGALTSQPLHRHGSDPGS
row,Compound,"hERG current change (%, negative = inhibition) at 10uM"
1,COc1ccc(S(=O)(=O)N2CCOCC2)cc1NC(=O)CNC(=O)c1cccs1,7.47%
2,CCc1ccc(NC(=O)[C@H](NC(=O)[C@@H]2Cc3ccccc3CN2)c2ccccc2)cc1,-55%
3,CCCNS(=O)(=O)c1ccc(OCC(=O)Nc2ccc3c(c2)OCCO3)cc1,-3.72%
4,Cc1[nH]c(=O)[nH]c(=O)c1S(=O)(=O)N1CCCC(C(=O)NCCc2ccccc2)C1 (centres unmarked),16.5%
5,CCc1cccc2c(C=C(C#N)C#N)cn(CC(=O)N3CCCCCC3)c12,4.86%
6,COc1ccc(S(=O)(=O)N2CCC(C(=O)N3CCCC3)CC2)cc1,-3.42%
7,CN(CC(=O)Nc1ccccc1C(=O)NC1CC1)Cc1ccc(Cl)s1,-40.7%
8,COc1cc(C=O)c(Cl)cc1OCC(N)=O,6.54%
9,COc1ccc(OC)c(CCNC(=O)C(C)n2nc(C)c3c(C)n(-c4ccccc4)nc3c2=O)c1 (centres unmarked),-0.756%
10,CN1C(=O)C(O)(C2CCCCCC2=O)c2ccccc21 (centres unmarked),4.45%
11,CC1(C)CC(=O)C2=C(C1)OC(N)=C(C#N)C2c1ccc(OC(=O)N2CCOCC2)cc1 (centres unmarked),-5.53%
12,O=C(NC1CC1)c1ccc(NS(=O)(=O)c2ccc(F)cc2)cc1,-33.8%
13,O=C(O)c1nn(Cc2csc(-c3ccccc3)n2)c(=O)c2ccccc12,23.1%
14,c1ccc(COc2cccc(CNn3cnnc3)c2)cc1,2.73%
15,CCC(CC)C(=O)N1N=C(c2ccc(NS(C)(=O)=O)cc2)CC1c1ccccc1 (centres unmarked),-41.4%
16,c1ccc(CC2CCN(C3=Nc4cccc5cccc3c45)CC2)cc1,-80%
17,Cc1csc(NC(=O)c2ccccc2O)n1,-12.7%
18,CC1CCCCN1S(=O)(=O)c1ccc(C(=O)Nc2sccc2C(N)=O)cc1 (centres unmarked),4.13%
19,O=C(COc1ccc(S(=O)(=O)N2CCCC2)cc1)N1CCN(c2ccccc2F)CC1,-32.3%
20,O=C(NNS(=O)(=O)c1ccccc1)C1CCN(S(=O)(=O)c2ccccc2)CC1,11%
21,COC(=O)c1ccc(CSc2n[nH]c(-c3ccccc3)n2)o1,20.8%
22,CC(CCc1ccccc1)NC(=O)c1nnc(Cc2ccc(Cl)cc2)o1 (centres unmarked),15.3%

row,Compound,"hERG current change (%, negative = inhibition) at 10uM"
1,N#CCC(=O)c1ccccc1Oc1ccc(Cl)cc1,8.42%
2,O=C(O)COc1ccccc1/C=N/NC(=O)c1cc(-c2ccccc2)nc2ccccc12,13.5%
3,COc1cccc(NC(=O)COC(=O)Cn2c(C)csc2=O)c1,3.45%
4,CNC(=O)C1CCC(=O)N1Cc1ccccc1Cl (centres unmarked),8.18%
5,CCC(=O)N1CCN(c2ccc(NC(=O)COc3ccccc3Cl)cc2)CC1,-15.6%
6,CC1(CCc2ccccc2)NC(=O)N(CC(=O)O)C1=O (centres unmarked),-0.692%
7,COc1ccc(CN(C(=O)CN2C(=O)c3ccccc3S2(=O)=O)C(C(=O)NCC2CCCO2)c2ccncc2)cc1 (centres unmarked),-10.3%
8,Cn1c(N)c(C(=O)CSc2nnc(Cc3cccs3)n2C2CC2)c(=O)n(C)c1=O,-13.3%
9,CN(C)C(=O)CSc1nnc(C23CC4CC(CC(C4)C2)C3)o1,-8.75%
10,COc1ccc(OCC(=O)N2CCN(c3nnc(-c4ccccc4)c4ccccc34)CC2)cc1,-64.4%
11,Cc1ccccc1C(=O)NCC(=O)NNC(=O)c1cccc(Cl)c1,5.03%
12,COCCN1Cc2cccc(C(=O)Nc3ccccc3OC)c2C1=O,-18.7%
13,COC(=O)c1ccc(NC(=O)CSc2nc(N)c(NC(=O)c3ccc(Br)o3)c(=O)[nH]2)cc1,20.8%
14,CC(C)NC(=O)CSc1nnc(-c2ccc(C(C)(C)C)cc2)n1C,-7.38%
15,CCOc1ccc(S(=O)(=O)N(CC(=O)O)c2ccc(C)cc2)cc1,1.4%
16,Cc1ccc(NC(=O)NN(C)c2c(Cl)c(Cl)nn2C)cc1,-1.87%
17,CC(NC(=O)CCSc1nc(-c2ccc3c(c2)OCO3)cc(C(F)(F)F)n1)c1ccccc1 (centres unmarked),11.4%
18,CCOC(=O)C1(CCOC)CCN(C(=O)Cc2ccc3ccccc3c2)CC1,-0.72%
19,CCc1ccc(NC(=O)CCn2ccnc2C)cc1,-21.9%
20,Cn1c(C(=O)OC(C(=O)NC2CCCC2)c2ccncc2)cc2sccc21 (centres unmarked),-1.94%
21,Cc1nn(-c2c(Cl)cc(Cl)cc2Cl)c(=O)c2ccccc12,-0.844%
22,COC(=O)C1=C(CCc2ccccc2)NC(=O)NC1c1ccc(Br)cc1 (centres unmarked),-11.9%

row,Compound,"hERG current change (%, negative = inhibition) at 10uM"
1,CC(=O)c1ccc(NC(=O)CSc2nnc(-c3ccco3)c(-c3ccco3)n2)cc1,-33%
2,Cc1cc(NC(=O)CSc2ccc3ccccc3c2)no1,-33.9%
3,Cc1ccccc1C(=O)Nc1nnc(-c2cccnc2)o1,18.4%
4,C#CC[N+]1(CC#Cc2cccc3ccccc23)CCOCC1.[Br-],12.9%
5,CC1=NN(c2ccccc2)C(=O)/C1=C/C=C/C=C/N(C)C,10.9%
6,O=C(CCn1nc(-c2ccc(Cl)cc2)ccc1=O)NCc1ccccn1,-32%
7,CCOc1ccc(CCNC(=O)CN(C)S(=O)(=O)c2cccc3nsnc23)cc1OCC,-9.79%
8,COc1cc(NC(=O)c2ccc(Br)o2)ccc1NC(=O)C(C)C,-11.7%
9,O=S(=O)(NCc1ccc(Cl)cc1Cl)c1cccs1,-30.5%
10,CNC(CC(C)C)C(=O)NC1C(=O)NC(CC(N)=O)C(=O)NC2C(=O)NC3C(=O)NC(C(=O)NC(C(=O)O)c4cc(O)cc(O)c4-c4cc3ccc4O)C(O)c3ccc(c(Cl)c3)Oc3cc2cc(c3OC2OC(CO)C(O)C(O)C2OC2CC(C)(N)C(O)C(C)O2)Oc2ccc(cc2Cl)C1O.Cl.O (centres unmarked),-0.925%
11,Cc1cc(-n2ccc(=O)[nH]c2=O)nc(-c2ccccc2)n1,-16.2%
12,O=C(NC1C2CC3CC(C2)CC1C3)C1CCCCC1 (centres unmarked),7.35%
13,Cc1ccc2c(c1)c(C1=c3ccccc3=NC1=O)c(O)n2C,17.1%
14,COc1ccc(C(CNC(=O)c2cc(C)oc2C)N2CCOCC2)cc1 (centres unmarked),-3.8%
15,CC1=C(C(=O)OCc2ccccc2)C(c2ccccc2OS(=O)(=O)c2ccccc2[N+](=O)[O-])NC(=O)N1CCCC(=O)O (centres unmarked),-4.46%
16,COc1ccccc1C(=O)Nc1cccc(SC)c1,-7.44%
17,Cc1ccc(OCC(=O)N2CCN(Cc3cccnc3)CC2)cc1.O=C(O)C(=O)O,17.7%
18,Cc1ccc(Cl)c(N/C=C/C(=O)c2ccccc2)c1,11.4%
19,Cc1ccc(C(=O)NC(=S)Nc2ccc(N3CCN(C(=O)c4ccco4)CC3)cc2)cc1,17.1%
20,CN1CC(=O)NC1=NC(=O)c1ccc(Cl)c(S(=O)(=O)N2CCCCCC2)c1,-34.2%
21,COc1cc(/C=C2/NC(=O)N(Cc3ccccc3F)C2=O)ccc1O,-1.04%
22,CCCCN(C(=O)CC1CCCC1)c1c(N)n(CCCC)c(=O)[nH]c1=O,5.24%

row,Compound,"hERG current change (%, negative = inhibition) at 10uM"
1,COc1ccc(-n2nc(C(=O)N(C)C)nc2-c2ccccc2)cc1,5.39%
2,CN(C)Cc1c(O)ccc2c(=O)c(-c3ccccc3)c(C(F)(F)F)oc12,5.31%
3,COc1ccc(N2C(=NC(=O)C(C)Oc3ccccc3)SC3CS(=O)(=O)CC32)cc1 (centres unmarked),-36.6%
4,CCN(CC)C(=O)Cn1cc(C(=O)C(=O)N2CCN(c3ccc(OC)cc3)CC2)c2ccccc21,16.1%
5,Cc1cc(C(=O)O/N=C(\N)c2ccc(C(C)(C)C)cc2)no1,13.6%
6,CCCCCCn1c(SCC(=O)OC)nc2c1c(=O)[nH]c(=O)n2C,-70.1%
7,O=[N+]([O-])c1cc(C(F)(F)F)ccc1Sc1ccc2ccccc2n1,13.3%
8,O=c1[nH]cnc2cc(-c3ccc(Br)cc3)sc12,12.3%
9,CCCOc1ccc(Cn2c(=O)oc3ccc(C)cc32)cc1OC,4.73%
10,COc1ccc(CN2C(=O)CSCC2=O)cc1OC,12.1%
11,CC(=O)CCc1ccccc1,2.76%
12,CCN1CCN(C(=O)Cn2nc(-c3ccc(Cl)cc3)ccc2=O)CC1,2.03%
13,O=C(COc1coc(CN2CCN(c3ccc(F)cc3)CC2)cc1=O)NCC1CCCO1 (centres unmarked),10.2%
14,Cc1nc2ccccn2c1C(=O)NNC(=O)Nc1ccccc1,10.2%
15,CCc1nnc(NC(=O)CSc2nc(C)c3c(c2C#N)CCCC3)s1,9.44%
16,C/C(CC(=O)NCc1ccccc1)=N\NC(=O)c1cnccn1,-8.01%
17,CN1CCC(=O)N(CCN=[N+]=[N-])CC1,22.9%
18,COc1c2ccoc2c(OC(C)=O)c2oc(C)cc(=O)c12,26.5%
19,CN1C(=O)C(C)(C)c2cc(S(=O)(=O)N3CCC(C(=O)NCc4ccc(Cl)cc4)CC3)ccc21,-11.3%
20,O=C(O)Cn1nnc2ccccc21,-3.4%
